From PubChem BioAssay AID1346428 (National Center for Advancing Translational Sciences (NCATS), 2018)
Values joined by “and” are separate entries in the source; they are usually repeats but may differ in a detail not shown here. Equal entries are not always repeated. About 1,200 (2.5%) of roughly 48,000 compounds were called active. Roughly 2% stayed inconclusive and do not appear here.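 Rule for the calls: active = activation of at least 60% and not above a set upper limit (about 1 call in 100 departs from these limits); inconclusive = activation of 40% to 60%, or above that upper limit; inactive = activation under 40%.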 The list shows a part of the results.

The compounds below were run against Probable G-protein coupled receptor 32 (Homo sapiens) (UniProt O75388) (assay: qHTS for Agonists of Human Resolvin D1 Receptor DRV1). Details: CHO-K1 GPR32 beta-arrestin PathHunter luminescence, 90 min; at 76.9 µM; stronger effect = higher value; zero percent set by DMSO-only wells.
UniProt O75388, sequence (O75388 whole entry, looked up): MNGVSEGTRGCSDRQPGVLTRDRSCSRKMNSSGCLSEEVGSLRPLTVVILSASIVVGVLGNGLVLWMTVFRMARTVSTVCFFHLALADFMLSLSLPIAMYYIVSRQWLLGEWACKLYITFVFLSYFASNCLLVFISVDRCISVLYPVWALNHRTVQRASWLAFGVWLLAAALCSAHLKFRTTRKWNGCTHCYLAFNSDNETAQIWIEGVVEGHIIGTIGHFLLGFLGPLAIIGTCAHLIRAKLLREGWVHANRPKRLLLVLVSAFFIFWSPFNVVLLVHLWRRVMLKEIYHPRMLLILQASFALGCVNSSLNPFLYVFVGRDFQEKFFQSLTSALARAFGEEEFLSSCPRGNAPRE
How it was run: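 Beta-arrestin recruitment read-out: luminescence from complemented beta-Gal in CHO-K1 GPR32 PathHunter cells, measured 1 h after detection reagent at ambient temperature following 90 min compound exposure at 37 °C; DMSO served as basal (EC0) control.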

SMILES | activation
O=C(Nc1cccc(C(=O)Nc2ccc(S(=O)(=O)O)c3cc(S(=O)(=O)O)cc(S(=O)(=O)O)c23)c1)Nc1cccc(C(=O)Nc2ccc(S(=O)(=O)O)c3cc(S(=O)(=O)O)cc(S(=O)(=O)O)c23)c1 | inactive: 1.59%
Cc1cccc(NC(=O)c2ccc3nc(CCc4ccccc4)oc3c2)c1C | inactive: -12.3%
COc1ccc(-c2noc(CSc3nc(N)cc(=O)[nH]3)n2)cc1 | active: 98.3%
Cc1cccc(N2CCN(c3ccc(NC(=O)c4ccccc4)cc3C(=O)O)CC2C)c1 (centres undefined) | inactive: 29.6%
Cc1ncc(CO)c2c1Oc1nc(-c3ccc(F)cc3)nc(SCc3ccc(F)cc3Cl)c1C2 | inactive: 38.6%
O=C(NCc1ccc(F)cc1)c1ccc2c(c1)nc1n2CCCCC1 | inactive: -8.4%
CCOc1ccccc1C(=O)Nc1ccc2nc3c(c(Nc4ccc(OC)c(OC)c4)c2c1)CCCC3 | inactive: -20.6%
CCOC(=O)c1ccc(NC(=O)CN2Cc3ccccc3C2=O)cc1 | inactive: -6.32%
COc1ccccc1C(=O)Nc1onc2c1CCCC2 | inactive: -14.5%
O=C(Nc1ccccc1)c1ccc2c(O)c(S(=O)(=O)c3ccc(Cl)cc3)c(=O)[nH]c2c1 | inactive: -11.9%
Cc1cc(Nc2cccc(Cl)c2)nc2ccc(NC(=O)c3cccc(N(C)C)c3)cc12 | inactive: 5.59%
COc1ccc(-c2noc(-c3nnn(-c4ccc(C(C)C)cc4)c3C)n2)cc1OC | inactive: -12.4%
CCCS(=O)(=O)N1CCC(N2CCN(Cc3ccc(F)cc3)C(=O)C2=O)CC1 | inactive: 9.28%
Cc1cc(O)c2c(C)c(CC(=O)N3CCCCC3)c(=O)oc2c1 | inactive: 15.9%
CCn1c(=O)c2sccc2n2c(CCC(=O)Nc3ccc(OC)cc3OC)nnc12 | inactive: 36.7%
CCc1ccccc1NC(=O)CN1C(=O)c2cccnc2Sc2ccccc21 | inactive: -16.3%
COc1ccc(-c2nc3ccccc3s2)cc1NC(=O)c1cccc([N+](=O)[O-])c1C | inactive: -12.9%
COCc1nc2ccccc2n1Cc1cccc(C)c1 | inactive: 1.66%
O=c1c2ccccc2n(Cc2c(F)cccc2Cl)c(=O)n1Cc1ccccc1 | inactive: -4.3%
CCn1c(=N)c(C(=O)NCC2CCCO2)cc2c(=O)n3cc(C)ccc3nc21 (centres undefined) | inactive: -9.07%
O=S(=O)(NCC(c1ccccc1)N1CCc2ccccc21)c1ccccc1 (centres undefined) | inactive: -24.1%
Cc1ccc(Cn2c(CNC(=O)Cc3cccc([N+](=O)[O-])c3)nc3cccnc32)cc1 | inactive: -14.9%
CCCOc1ccc(NC(=O)CC2C(=O)N(c3ccc(F)cc3)C(=O)N2CC(C)C)cc1 (centres undefined) | inactive: -21.4%
CCn1c(=O)cc(OCC(=O)N2CCN(c3cccc(Cl)c3)CC2)c2ccccc21 | inactive: 18.2%
Cc1ccc2c(c1)sc1nc(=O)n(-c3ccc(Cl)c(Cl)c3)c(=O)n12 | inactive: 4.88%
COc1ccc(C2=C(C)C(=NCc3ccc(OC(C)C)cc3)NS2(=O)=O)cc1 | inactive: -14.8%
Cc1ccc(S(=O)(=O)N2CCN(Cc3ccc4c(c3)OCO4)CC2)cc1 | inactive: 0.184%

SMILES | activation
CCc1ccc(-c2cc(C)no2)cc1S(=O)(=O)Nc1cc(OC)c(OC)c(OC)c1 | inactive: -9.88%
CCCCOc1ccc(CNC(=O)C2CCCN(c3nnc(-n4c(C)ccc4C)s3)C2)cc1 (centres undefined) | inactive: -9.46%
CC(=O)Nc1ccc(S(=O)(=O)Nc2cccc(-c3ccc(N4CCCCCC4)nn3)c2)cc1 | inactive: -0.188%
COc1ccc(C(=O)NCCn2cc(SCC(=O)Nc3ccc(F)cc3)c3ccccc32)cc1 | inactive: 22.8%
CCNc1ccc(-c2nc(-c3ccncc3)no2)cc1[N+](=O)[O-] | inactive: 5.73%
CNC(=O)c1cc(Oc2ccc(NC(=O)Nc3ccc(Cl)c(C(F)(F)F)c3)cc2)ccn1 | active: 92%
COc1cccc2c1C(=O)c1c(O)c3c(c(O)c1C2=O)C[C@@](O)(C(C)=O)C[C@@H]3O[C@H]1C[C@H](N)[C@H](O)[C@H](C)O1 | inactive: -63.7%
Cc1nn(CCCC(=O)Nc2cccc(C(F)(F)F)c2)c(=O)c2nn(-c3ccccc3)c(C)c12 | inactive: -8.79%
CCn1cc(C(=O)NCCc2ccc(Cl)cc2)c(=O)c2cc(S(=O)(=O)N3CCCCCC3)ccc21 | inactive: -1.44%
CCN1CCN(C(=O)N[C@@H](C(=O)N[C@@H]2C(=O)N3[C@@H]2SC(C)(C)[C@H]3C(=O)O)c2ccccc2)C(=O)C1=O | inactive: -7.07%
O=C(COc1ccccc1F)Nc1ccc2nc(SCC(=O)N3CCCC3)sc2c1 | inactive: 10.9%
Cc1ccc2c(=O)c(C(=O)c3ccccc3)cn(CC(=O)Nc3ccccc3C)c2n1 | inactive: -1.36%
COc1cc(NC(=O)Cn2cnc3sc(C)c(S(=O)(=O)N4CCC(C)CC4)c3c2=O)cc(OC)c1OC | inactive: 4.2%
CCOc1ccccc1C(=O)N1CC(=O)Nc2ccc(C)cc2C1c1ccccc1 (centres undefined) | inactive: -19.7%
Cc1ccc(CN2c3ccccc3-c3nc(SCC(=O)Nc4c(C)cc(C)cc4C)ncc3S2(=O)=O)cc1 | inactive: -17.5%
CCOc1ccccc1NC(=O)N1CCc2c(sc3c2CCCC3)C1c1ccccc1 (centres undefined) | inactive: -1.47%
O=C(OCc1ccccc1Cl)c1ccc(-c2nnn(Cc3ccc(F)cc3)n2)cc1 | inactive: 1.54%
Cc1nn2c(=O)cc(COc3ccc(/C=C(\C#N)C(=O)Nc4ccccc4)cc3Cl)nc2s1 | inactive: -0.0838%
Brc1ccc2c(c1)NC(c1cccnc1)=NC(c1ccccc1)=N2 | inactive: -11.3%
CCc1cccc(C)c1Nc1c(-c2cccs2)nc2nc(C)cc(C)n12 | inactive: -34.3%
CCOc1cc(C(=O)NCc2nc(-c3cccc(C)c3)no2)cc(OCC)c1OCC | inactive: -14.6%
COC(=O)c1ccccc1NC(=O)c1cc(CN2CCOCC2)on1 | inactive: -8.73%
CCN(CC)c1ccc(NC(=O)CCS(=O)(=O)c2ccc3c(c2)oc(=O)n3C)c(C)c1 | inactive: -1.26%
Cc1ccc(CNc2ncnc3onc(C)c23)cc1 | inactive: 19.6%
COc1ccc(-c2cc3nc(C)c(CCC(=O)N4CCN(c5ccccc5F)CC4)c(C)n3n2)c(OC)c1 | inactive: 13.8%
CCC(=O)Nc1ccc(CC)cc1-c1nc2ccccc2n(CC(=O)Nc2ccccc2C)c1=O | inactive: -0.424%
COc1ccc(-c2onc(C)c2C)cc1S(=O)(=O)Nc1cc(Cl)ccc1C | inactive: -3.07%

SMILES | activation
O=C(CSc1nc2ccccc2nc1Cc1ccccc1F)Nc1cccc(C(F)(F)F)c1 | inactive: 22.9%
CC(C)OCCCn1c(=O)c2ccccc2n2c(-c3cc(Cl)ccc3O)nnc12 | inactive: 15.5%
CCCOc1ccc(C2c3c(-c4ccccc4O)n[nH]c3C(=O)N2Cc2cccnc2)cc1 (centres undefined) | inactive: -10.4%
COc1cc2c(cc1OC)C(COc1ccc(F)cc1)N(C(=O)Cc1ccccc1)CC2 (centres undefined) | inactive: -28.5%
CCOc1ccc(-c2cc(C(=O)NCCCOC)c3c(-c4ccc(CC)cc4)[nH]nc3n2)cc1 | inactive: -23.4%
COc1cc(C(=O)Nc2ccc(-c3nc4ccccc4o3)c(O)c2)cc(OC)c1OC | inactive: -0.819%
Cc1cn2c(=O)cc(COC(=O)c3ccc(NC(=O)COc4ccc(C)c(C)c4)cc3)nc2s1 | inactive: -15.1%
CCOc1ccc(CN(C(=O)c2cc(=O)c3cc(Cl)ccc3o2)C2CCS(=O)(=O)C2)cc1 (centres undefined) | inactive: -7.05%
CCCCOC(=O)c1c(C)oc2ccc(NS(=O)(=O)c3ccc(F)cc3C)cc12 | inactive: 16%
CCc1ccc(CNc2ncnc3onc(-c4ccc(Cl)cc4)c23)cc1 | inactive: -4.81%
COc1ccc(N2CCN(C(CNC(=O)c3cccc(OC)c3)c3cccnc3)CC2)cc1 (centres undefined) | inactive: 3.59%
NC(N)=NC(=O)c1nc(Cl)c(N)nc1N | inactive: -15.8% and inactive: 6.15%
COc1ccc(-c2cc(C(F)(F)F)n3nc(C(=O)Nc4sc5c(c4C(=O)OC(C)C)CCCC5)cc3n2)cc1OC | inactive: -8.72%
CCN(CC)C(=O)C1CCN(c2cc(C)nc3c(-c4ccc(OC)c(OC)c4)c(C)nn23)CC1 | inactive: 3.37%
COc1ccc(NC(=O)Cn2c(=O)n(-c3ccc(C)c(C)c3)c(=O)c3c4c(sc32)CCCCC4)cc1Cl | inactive: -7.68%
CCc1ccc(NC(=O)CSc2cn(CC(=O)N3CCOCC3)c3ccccc23)cc1 | inactive: -2.19%
CCCCNC(=O)CSC1=Nc2ccccc2C2=NC(CCC(=O)NCc3ccccc3OC)C(=O)N12 (centres undefined) | inactive: 0.969%
Cn1c(C(=O)N2CCCC(C(=O)N3CCN(c4ccccc4)CC3)C2)cc2sccc21 (centres undefined) | inactive: -5.54%
COc1ccc(CCNC(=O)c2cc(=O)c3c(C)cc(C)cc3o2)cc1OC | inactive: 38.8%
CC(CC(=O)NCc1ccc(Cl)cc1Cl)CC1=NS(=O)(=O)c2ccccc2N1 (centres undefined) | active: 66.4%
Cc1ccc(/C=C/c2nc3ccccc3n2S(=O)(=O)c2cccc(Cl)c2)cc1 | inactive: 40%
O=C(CCn1c(=O)c2cccn2c2cccnc21)NCc1ccc(Cl)cc1 | inactive: -15.4%
COC(=O)c1ccc(NC(=O)C(=O)NCCc2sc3nc(-c4ccc(OC)cc4)nn3c2C)cc1 | inactive: -4.6%
COc1ccccc1NC(=O)C1=C(C)Nc2c(C(=O)Nc3cccc(C)c3)cnn2C1c1ccccc1C (centres undefined) | inactive: -16.4%
COc1cc2c(cc1OC)n(CC(=O)Nc1ccccc1)c(=O)n1nc(-c3ccccc3)nc21 | inactive: 11.8%
